Test results from the supplement of paper PMC8728848.
This is one part of the list.

Legend:
Assay in all cases: glycan array binding signal (z-score within array); higher = stronger binding
Settings in all cases: glycan notation: IUPAC condensed, linker removed
[1] = target: GalNAc(a1-3)GalNAc(b1-3)Gal(a1-4)Gal(b1-4)GlcNAc
Summary of the method: (§1)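 Columns mapping to the same glycan were averaged after glycan names were converted to IUPAC-condensed notation. The data come from 3228 arrays in the Consortium for Functional Glycomics database, limited to those with an available protein sequence. Binding is reported as a within-array Z-score averaged across arrays of one protein sequence and across linkers.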

[2] = target: GalNAc(b1-3)Gal
Summary of the method: as §1

[3] = target: GalNAc(b1-3)Gal(a1-4)Gal(b1-4)GlcNAc
Summary of the method: as §1

[4] = target: GalNAc(b1-3)Gal(a1-4)Gal(b1-4)GlcNAc(b1-3)Gal(b1-4)Glc
Summary of the method: as §1

[5] = target: GalNAc(b1-3)Gal(a1-6)Gal(b1-4)Glc
Summary of the method: as §1

[6] = target: GalNAc(b1-3)GalNAc
Summary of the method: as §1

[7] = target: GalNAc(b1-3)GlcNAc
Summary of the method: as §1

[8] = target: GalNAc(b1-4)Gal(b1-4)Glc
Summary of the method: as §1

[9] = target: GalNAc(b1-4)GlcNAc
Summary of the method: as §1

[10] = target: GalNAc(b1-4)GlcNAc(b1-2)Man
Summary of the method: as §1

[11] = target: GalNAc(b1-4)GlcNAc(b1-2)Man(a1-3)[GalNAc(b1-4)GlcNAc(b1-2)Man(a1-6)]Man(b1-4)GlcNAc(b1-4)GlcNAc
Summary of the method: as §1

[12] = target: GalNAc(b1-4)GlcNAc(b1-3)GalNAc(b1-4)GlcNAc
Summary of the method: as §1

[13] = target: GalNAc(b1-4)GlcNAc6S
Summary of the method: as §1

[14] = target: GalNAc(b1-6)GalNAc
Summary of the method: as §1

[15] = target: GalNAc3S(b1-4)GlcNAc
Summary of the method: as §1

[16] = target: GalNAc3S(b1-4)GlcNAc3S
Summary of the method: as §1

[17] = target: GalNAc3S(b1-4)[Fuc(a1-3)]GlcNAc
Summary of the method: as §1

[18] = target: GalNAc4S6S(b1-4)GlcNAc
Summary of the method: as §1

[19] = target: GalNAc6S(b1-4)GlcNAc
Summary of the method: as §1

[20] = target: Glc(a1-4)Glc
Summary of the method: as §1

[21] = target: Glc(a1-4)Glc(a1-4)Glc(a1-4)Glc
Summary of the method: as §1

[22] = target: Glc(a1-6)Glc(a1-6)Glc
Summary of the method: as §1

[23] = target: Glc(a1-6)Glc(a1-6)Glc(a1-6)Glc
Summary of the method: as §1

[24] = target: Glc(b1-4)Glc
Summary of the method: as §1

[25] = target: Glc(b1-6)Glc
Summary of the method: as §1

[26] = target: GlcA(b1-3)Gal
Summary of the method: as §1

[27] = target: GlcA(b1-3)GlcNAc
Summary of the method: as §1

[28] = target: GlcA(b1-6)Gal
Summary of the method: as §1

[29] = target: GlcA3S(b1-3)Gal(b1-4)GlcNAc(b1-2)Man
Summary of the method: as §1

[30] = target: GlcA3S(b1-3)Gal(b1-4)GlcNAc(b1-3)Gal(b1-4)Glc
Summary of the method: as §1

[31] = target: GlcNAc(a1-3)Gal(b1-4)GlcNAc
Summary of the method: as §1

[32] = target: GlcNAc(a1-4)Gal(b1-3)GlcNAc
Summary of the method: as §1

[33] = target: GlcNAc(a1-4)Gal(b1-4)GalNAc
Summary of the method: as §1

[34] = target: GlcNAc(a1-4)Gal(b1-4)GlcNAc
Summary of the method: as §1

[35] = target: GlcNAc(a1-4)Gal(b1-4)GlcNAc(b1-3)Gal(b1-4)Glc
Summary of the method: as §1

[36] = target: GlcNAc(a1-4)Gal(b1-4)GlcNAc(b1-3)Gal(b1-4)GlcNAc
Summary of the method: as §1

[37] = target: GlcNAc(a1-4)Gal(b1-4)GlcNAc(b1-3)Gal(b1-4)GlcNAc(b1-3)Gal(b1-4)GlcNAc
Summary of the method: as §1

[38] = target: GlcNAc(a1-4)Gal(b1-4)GlcNAc(b1-3)Gal(b1-4)[Fuc(a1-3)]GlcNAc(b1-3)Gal(b1-4)[Fuc(a1-3)]GlcNAc
Summary of the method: as §1

B1: DC-Sign (Homo sapiens), Q9NNX6 (protein)
chain: MSDSKEPRLQQLGLLEEEQLRGLGFRQTRGYKSLAGCLGHGPLVLQLLSFTLLAGLLVQVSKVPSSISQEQSRQDAIYQNLTQLKAAVGELSEKSKLQEIYQELTQLKAAVGELPEKSKLQEIYQELTRLKAAVGELPEKSKLQEIYQELTWLKAAVGELPEKSKMQEIYQELTRLKAAVGELPEKSKQQEIYQELTRLKAAVGELPEKSKQQEIYQELTRLKAAVGELPEKSKQQEIYQELTQLKAAVERLCHPCPWEWTFFQGNCYFMSNSQRNWHDSITACKEVGAQLVVIKSAEEQNFLQLQSSRSNRFTWMGLSDLNQEGTWQWVDGSPLLPSFKQYWNRGEPNNVGEEDCAEFSGNGWNDDKCNLAKFWICKKSAASCSRDEEQFLSPAPATPNPPPA
glycan array binding signal (z-score) [1]: -0.144
glycan array binding signal (z-score) [2]: -0.158
glycan array binding signal (z-score) [3]: -0.153
glycan array binding signal (z-score) [4]: -0.17
glycan array binding signal (z-score) [5]: -0.061
glycan array binding signal (z-score) [6]: -0.179
glycan array binding signal (z-score) [7]: -0.105
glycan array binding signal (z-score) [8]: -0.131
glycan array binding signal (z-score) [9]: -0.059
glycan array binding signal (z-score) [10]: -0.17
glycan array binding signal (z-score) [11]: -0.179
glycan array binding signal (z-score) [12]: -0.064
glycan array binding signal (z-score) [13]: -0.133
glycan array binding signal (z-score) [14]: -0.17
glycan array binding signal (z-score) [15]: -0.013
glycan array binding signal (z-score) [16]: -0.101
glycan array binding signal (z-score) [17]: -0.158
glycan array binding signal (z-score) [18]: -0.16
glycan array binding signal (z-score) [19]: -0.164
glycan array binding signal (z-score) [20]: -0.193
glycan array binding signal (z-score) [21]: -0.18
glycan array binding signal (z-score) [22]: -0.156
glycan array binding signal (z-score) [23]: -0.146
glycan array binding signal (z-score) [24]: -0.193
glycan array binding signal (z-score) [25]: -0.191
glycan array binding signal (z-score) [26]: -0.193
glycan array binding signal (z-score) [27]: -0.186
glycan array binding signal (z-score) [28]: -0.184
glycan array binding signal (z-score) [29]: -0.189
glycan array binding signal (z-score) [30]: -0.201
glycan array binding signal (z-score) [31]: -0.052
glycan array binding signal (z-score) [32]: -0.185
glycan array binding signal (z-score) [33]: -0.178
glycan array binding signal (z-score) [34]: -0.127
glycan array binding signal (z-score) [35]: -0.16
glycan array binding signal (z-score) [36]: -0.186
glycan array binding signal (z-score) [37]: -0.159
glycan array binding signal (z-score) [38]: -0.137
